# Assay results: PubChem BioAssay AID1671194 (National Center for Advancing Translational Sciences (NCATS), 2021)
# In all, about 140,000 compounds went through this assay and about 240 (0.17%) were called active. This list was built around the results that the source calls inconclusive (neither active nor inactive); the mix of calls is not that of the screen. The call rests on the fitted dose curve; in most records, active means well fitted inhibition curve with a large enough effect; inconclusive means small, poorly fitted or top-dose-only effect; inactive means no such curve, though single readings can be large or run the other way. Potencies of inconclusive entries are doubtful fits and often do not repeat.
# Assay: Primary qHTS assay for inhibitors of alpha-synuclein gene (SNCA) expression; further: nearly all actives have a fitted effect of over 45% in size
# Settings: HEK-293 SNCA-luciferase knock-in, luminescence, 24 h; series mostly up to 57.2 µM
# Potency means the concentration at half of the fitted maximal effect; tags describe the fitted curve by direction and shape.
row,SMILES,Potency
1,O=C(NCc1cccnc1)c1nc(-c2ccc(F)cc2)c2ccccn12,inactive
2,C=Cc1ccc(Cn2c(=O)n(-c3cccc(Cl)c3)c(=O)c3c4c(sc32)CN(C(C)=O)CC4)cc1,"inconclusive: 10 µM [inhibitor, partial curve, poor fit]"
3,CCN(Cc1ccccc1)Cc1c(O)ccc2oc(C)c(C(=O)Nc3ccc(C)cc3C)c12,"inconclusive: 14.1 µM [inhibitor, partial curve, poor fit]"
4,N#Cc1cccc(-c2cn3cc(C(=O)NCCCc4ccccc4)nc3s2)c1,"inconclusive: 12.6 µM [inhibitor, partial curve, poor fit]"
5,COc1ccc(N2CCN(C(=O)CN3C(=O)C(c4ccccc4)=NC3(C)C)CC2)cc1,"inconclusive: 25.1 µM [inhibitor, partial curve, poor fit]"
6,COc1ccc(C(=O)N2CCC(n3c(C)cnc3-c3ccccc3)CC2)c(OC)c1,inactive
7,CCC(C(=O)NCCc1cc(OC)ccc1OC)n1nc(C)c2c(C)n(-c3ccccc3)nc2c1=O (configuration not stated),"inconclusive: 10 µM [inhibitor, partial curve, poor fit]"
8,CCCNC(=O)C[C@@H]1CCN(C(=O)c2ccnc(Cl)c2)C[C@@H]1CC,"inconclusive: 8.91 µM [inhibitor, partial curve, poor fit]"
9,Cc1ccc(Nc2sc(C(=O)c3ccc(F)cc3)c(N)c2S(=O)(=O)c2ccc(C)cc2)cc1,"inconclusive: 1 µM [inhibitor, full curve, poor fit]"
10,CCc1cc(N2CCC(NCCc3cccc(Cl)c3)CC2)nc(C)n1,inactive
11,COc1ccc(CN2C(=O)CO[C@H](c3ccc(NC(=O)Cc4ccccc4)cc3)[C@H]2CO)cc1,"inconclusive: 8.91 µM [inhibitor, single point]"
12,COc1ccc(CN(C)CC2CCN(CCc3ccc(F)cc3)CC2)cc1Cn1cccn1,"inconclusive: 2 µM [inhibitor, partial curve, poor fit]"
13,CCCN1Cc2cccc(C(=O)Nc3ccccc3C(=O)OC)c2C1=O,"inconclusive: 25.1 µM [inhibitor, single point]"
14,O=C(CN1C(=O)CCSc2ccccc21)Nc1ccc(C(F)(F)F)cc1,"inconclusive: 35.5 µM [inhibitor, single point]"
15,O=C(N[C@H]1C[C@H]2C(=O)NC[C@@H](CCC(=O)N3CCCCC3)N2C1)c1cccs1,"inconclusive: 5.62 µM [inhibitor, partial curve, poor fit]"
16,CCN(CC)c1ccc(NS(=O)(=O)c2cc(-c3cc(C)no3)ccc2C)c(C)c1,"inconclusive: 10 µM [inhibitor, partial curve]"
17,CCc1cccc(NC(=O)N2CCc3nc4cc(-c5ccc(OC)cc5)[nH]n4c(=O)c3C2)c1,"inconclusive: 12.6 µM [inhibitor, partial curve, poor fit]"
18,CC(C)C[C@@H]1N[C@H](C(=O)NC2CCCC2)Cc2cn(Cc3nccn3C)c3cccc1c23,"inconclusive: 44.7 µM [inhibitor, single point]"
19,Cc1cc(S(=O)(=O)Nc2ccc(O)c(Sc3nc4ccccc4s3)c2)ccc1Cl,"inconclusive: 11.2 µM [inhibitor, partial curve, poor fit]"

row,SMILES,Potency
1,CCOC(=O)c1c(NC(=O)c2ccc(S(=O)(=O)N(CC)CC)cc2)sc2c1CCCCC2,"inconclusive: 3.98 µM [inhibitor, full curve]"
2,CCN1c2cc(C(=O)Nc3ccc(OC)c(OC)c3)ccc2C(=O)N2CCCCC21 (configuration not stated),inactive
3,CCc1ccc(CN(Cc2cn[nH]c2-c2ccc(OC)cc2)C(=O)Nc2ccc(Br)cc2)cc1,"inconclusive: 20 µM [inhibitor, single point]"
4,O=C(Cc1cccc(F)c1)N1CCC(n2cc(-c3nc(-c4ccccc4)no3)nn2)CC1,inactive
5,COCCN1C(=O)[C@@H]2C[C@@H](CN2Cc2ccc(C(F)(F)F)cc2)Oc2ccccc21,"inconclusive: 56.2 µM [inhibitor, single point]"
6,Cc1cccc(-c2noc([C@@H]3Cc4nc[nH]c4CN3C(=O)c3ccc(-c4ccccc4)cc3)n2)c1,"inconclusive: 39.8 µM [inhibitor, single point]"
7,O=C(O)C1CC2(CCN(C(=O)NCc3ccccc3F)CC2)CN1 (configuration not stated),inactive
8,COc1cc(N2CCC(C(N)=O)CC2)ccc1Nc1nc(N)c(Cl)c(Nc2ccccc2S(=O)(=O)C(C)C)n1,"inconclusive: 48.2 µM [inhibitor, single point]"
9,O[C@@H]1C[C@@H](c2nnc3n2CCN(Cc2ccc4[nH]ccc4c2)C3)N(Cc2ccccc2)C1,"inconclusive: 12.6 µM [inhibitor, partial curve, poor fit]"
10,Cc1ncc2c(c1CNC(=O)CC(C)c1ccccc1)CCNC2 (configuration not stated),"inconclusive: 11.2 µM [inhibitor, partial curve, poor fit]"
11,Cn1nc(C(=O)NCCc2ccc(Cl)cc2)c2c1-c1ccccc1SC2,"inconclusive: 1.78 µM [inhibitor, full curve, poor fit]"
12,Cc1[nH]c(=O)[nH]c(=O)c1CC(=O)N[C@@H]1COCC[C@@H]1OCc1ccccc1,"inconclusive: 11.2 µM [inhibitor, partial curve, poor fit]"
13,CC1Oc2ccc(NC(=O)c3c(F)cccc3F)cc2CN(C2CCCc3ccccc32)C1=O (configuration not stated),inactive
14,COC(=O)c1ccccc1NC(=O)c1ccc(=O)n(Cc2cccc(C)c2)c1,"inconclusive: 11.2 µM [inhibitor, single point]"
15,Cc1ccc(CCNC(=O)CSCc2nc(-c3ccc(C)cc3)oc2C)cc1,"inconclusive: 25.1 µM [inhibitor, single point]"
16,CN1C(=O)[C@@H]2C[C@@H](CN2C(=O)CCC(=O)O)Oc2ccccc21,"inconclusive: 1.78 µM [inhibitor, single point]"
17,CCn1cc(C(=O)N[C@@H]2CN(c3ncccn3)C[C@H]2CO)cn1,"inconclusive: 8.91 µM [inhibitor, single point]"
18,CCOC(=O)c1ccc(NC(=O)Cn2c(=O)n(CC)c(=O)c3c2cc(C)n3C)cc1,"inconclusive: 39.8 µM [inhibitor, single point]"
